In publication PMC9911399, “Two distinct binding modes provide the RNA-binding protein RbFox with extraordinary sequence specificity” one finds binding signal data, which are given here for 20 molecules.

Numbering of substitutions follows the chain as printed; changes in the protein carry UniProt numbers. The list shows a part of the results.

First the molecules themselves.
T1: RBFOX1 RRM (Homo sapiens, UniProt Q9NWB1 109-208)
T1 sequence: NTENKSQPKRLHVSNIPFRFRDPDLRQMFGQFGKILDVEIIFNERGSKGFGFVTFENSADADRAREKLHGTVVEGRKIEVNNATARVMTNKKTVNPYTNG

B1: GUCAAAA (DNA:RNA)
RNA: GGGAGACCGGAAUUCAGAUUGUCCGUCAAAAUUAAAUCCCGUCGUAGCCACCA
DNA 1: CAATCTGAATTCCGGTCTCCC
DNA 2: TGGTGGCTACGACGGGATT
B2: UCUACGU (DNA:RNA)
RNA: B1 RNA with G25U, U26C, C27U, A29C, A30G, A31U
DNA 1: CAATCTGAATTCCGGTCTCCC
DNA 2: TGGTGGCTACGACGGGATT
B3: AAGCGAG (DNA:RNA)
RNA: B1 RNA with G25A, U26A, C27G, A28C, A29G, A31G
DNA 1: CAATCTGAATTCCGGTCTCCC
DNA 2: TGGTGGCTACGACGGGATT
B4: GGAUGGA (DNA:RNA)
RNA: B1 RNA with U26G, C27A, A28U, A29G, A30G
DNA 1: CAATCTGAATTCCGGTCTCCC
DNA 2: TGGTGGCTACGACGGGATT
B5: AGGCACC (DNA:RNA)
RNA: B1 RNA with G25A, U26G, C27G, A28C, A30C, A31C
DNA 1: CAATCTGAATTCCGGTCTCCC
DNA 2: TGGTGGCTACGACGGGATT
B6: GCACAUC (DNA:RNA)
RNA: B1 RNA with U26C, C27A, A28C, A30U, A31C
DNA 1: CAATCTGAATTCCGGTCTCCC
DNA 2: TGGTGGCTACGACGGGATT
B7: UUAGAAG (DNA:RNA)
RNA: B1 RNA with G25U, C27A, A28G, A31G
DNA 1: CAATCTGAATTCCGGTCTCCC
DNA 2: TGGTGGCTACGACGGGATT
B8: ACCCGAA (DNA:RNA)
RNA: B1 RNA with G25A, U26C, A28C, A29G
DNA 1: CAATCTGAATTCCGGTCTCCC
DNA 2: TGGTGGCTACGACGGGATT
B9: UGAAUAG (DNA:RNA)
RNA: B1 RNA with G25U, U26G, C27A, A29U, A31G
DNA 1: CAATCTGAATTCCGGTCTCCC
DNA 2: TGGTGGCTACGACGGGATT
B10: UUAUUGU (DNA:RNA)
RNA: B1 RNA with G25U, C27A, A28U, A29U, A30G, A31U
DNA 1: CAATCTGAATTCCGGTCTCCC
DNA 2: TGGTGGCTACGACGGGATT
B11: UGCACAU (DNA:RNA)
RNA: B1 RNA with G25U, U26G, A29C, A31U
DNA 1: CAATCTGAATTCCGGTCTCCC
DNA 2: TGGTGGCTACGACGGGATT
B12: UAAAUCG (DNA:RNA)
RNA: B1 RNA with G25U, U26A, C27A, A29U, A30C, A31G
DNA 1: CAATCTGAATTCCGGTCTCCC
DNA 2: TGGTGGCTACGACGGGATT
B13: GUCUCAC (DNA:RNA)
RNA: B1 RNA with A28U, A29C, A31C
DNA 1: CAATCTGAATTCCGGTCTCCC
DNA 2: TGGTGGCTACGACGGGATT
B14: ACUCGCC (DNA:RNA)
RNA: GGGAGACCGGAAUUCAGAUUGUCCACUCGCCUUAAAUCCCGUCGUAGCCACCA
DNA 1: CAATCTGAATTCCGGTCTCCC
DNA 2: TGGTGGCTACGACGGGATT
B15: UGUAGGU (DNA:RNA)
RNA: B14 RNA with A25U, C26G, C28A, C30G, C31U
DNA 1: CAATCTGAATTCCGGTCTCCC
DNA 2: TGGTGGCTACGACGGGATT
B16: ACUCGAU (DNA:RNA)
RNA: B14 RNA with C30A, C31U
DNA 1: CAATCTGAATTCCGGTCTCCC
DNA 2: TGGTGGCTACGACGGGATT
B17: AACCGCG (DNA:RNA)
RNA: B14 RNA with C26A, U27C, C31G
DNA 1: CAATCTGAATTCCGGTCTCCC
DNA 2: TGGTGGCTACGACGGGATT
B18: CGGGGCU (DNA:RNA)
RNA: B14 RNA with A25C, C26G, U27G, C28G, C31U
DNA 1: CAATCTGAATTCCGGTCTCCC
DNA 2: TGGTGGCTACGACGGGATT
B19: AUUCAAU (DNA:RNA)
RNA: B14 RNA with C26U, G29A, C30A, C31U
DNA 1: CAATCTGAATTCCGGTCTCCC
DNA 2: TGGTGGCTACGACGGGATT
B20: CCCUUGC (DNA:RNA)
RNA: B14 RNA with A25C, U27C, C28U, G29U, C30G
DNA 1: CAATCTGAATTCCGGTCTCCC
DNA 2: TGGTGGCTACGACGGGATT

The target in this assay is T1, RBFOX1 RRM. As to the kind of experiment: EMSA; HiTS-Eq, 1 nM pool, 10 min; buffer printed only for the single-RNA assays: 10 mM Tris pH 7.5, 150 mM NaCl, 3.4 mM EDTA, 0.001% NP-40, 30 C. The note with it: tags: His6 N-terminal (pET28a); label: 5' 32P. The procedure, abridged:
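A pool of RNA with 7 randomized nucleotides, 5′-radiolabelled and with DNA-annealed flanks, was equilibrated at 1 nM for 10 min in 50 µL with purified RbFox RRM, wild type or mutant, across increasing protein concentrations. Free RNA was separated by 8% native PAGE, excised, reverse-transcribed, barcoded by PCR and sequenced. Relative association constants were obtained from read-count changes of each RNA species versus the control reaction and normalised to the cognate motif.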
Background: Mobility shift assays separate free from complexed probe on a gel.
Take B1: the binding signal was 0.00273 KA relative to UGCAUGU.
For the molecule B2, the binding signal is 0.00715 KA relative to UGCAUGU.
For the molecule B3, the binding signal is 0.0101 KA relative to UGCAUGU.
B4: the binding signal is 0.0107 KA relative to UGCAUGU.
Then B5, with 0.00933 KA relative to UGCAUGU; and B6, with 0.00753 KA relative to UGCAUGU.
Take B7: the binding signal was 0.0141 KA relative to UGCAUGU.
Consider B8, for which the binding signal is 0.00259 KA relative to UGCAUGU.
In the case of B9, the binding signal is 0.0154 KA relative to UGCAUGU.
Turning to B10, the binding signal is 0.0162 KA relative to UGCAUGU.
For the molecule B11, the binding signal is 0.0108 KA relative to UGCAUGU.
For the molecule B12, the binding signal is 0.00678 KA relative to UGCAUGU.
Regarding B13, the binding signal was 0.0111 KA relative to UGCAUGU.
In the case of B14, the binding signal is 0.00741 KA relative to UGCAUGU.
For B15, the binding signal was 0.0104 KA relative to UGCAUGU.
For the molecule B16, the binding signal is 0.0039 KA relative to UGCAUGU.
Take B17: the binding signal is 0.0018 KA relative to UGCAUGU.
Then B18, with 0.0294 KA relative to UGCAUGU; and B19, with 0.00202 KA relative to UGCAUGU; and B20, with 0.0115 KA relative to UGCAUGU.
